Assay results as given in the supplement of paper PMC4604168 (melanoma cell lines).
This is one part of the list. Most values come without repeats; read them as rough.

Key:
Experiment in all cases: cell count relative to DMSO control; melanoma cells; higher = more viable cells
Settings in all cases: library dose: standard library concentration; 72 h
[1] = test system: 501Mel
[2] = test system: A101D
[3] = test system: A2058
[4] = test system: A375
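Also: cells treated in 1,536-well plates, then fixed and DAPI-stained, with nuclei counted from automated high-throughput microscope images.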

SMILES | cell count [1] | cell count [2] | cell count [3] | cell count [4]
CC(C)(C)c1cnc(CSc2cnc(NC(=O)C3CCNCC3)s2)o1 + O=C(O)C(=O)Nc1sc2c(c1C(=O)O)CCNC2 [TCS401] (first compound 0.05 µM, partner dose 8.33333 µM) | 89.7% | 76.2% | 94.8% | 165%
CCCCCCCCc1ccc(CCC(N)(CO)CO)cc1 [fingolimod] + CN(C)S(=O)(=O)c1ccc2c(c1)/C(=C/c1cc3c([nH]1)CCCC3)C(=O)N2 [SU6656] (first compound 10 µM, partner dose 2 µM) |  | 4.51% | 2.68% | 40.7%
CCCCCCCCc1ccc(CCC(N)(CO)CO)cc1 [fingolimod] + Cc1cc(Nc2cc(N3CCN(C)CC3)nc(/C=C/c3ccccc3)n2)n[nH]1 [ENMD2076] (first compound 10 µM, partner dose 0.2 µM) |  | 13.6% | 10.4% | 79.2%
Cc1ccc(NC(=O)c2cccc(N(C)C)c2)cc1NC(=O)c1ccc(O)cc1 + CC(C)(C)c1cnc(CSc2cnc(NC(=O)C3CCNCC3)s2)o1 [SNS-032] (first compound 10 µM, partner dose 0.05 µM) |  | 82.4% | 92.1% | 106%
NC(=O)c1ccc(N(C(N)=O)c2c(F)cccc2F)nc1-c1ccc(F)cc1F + C#Cc1cccc(Nc2ncnc3cc(OCCOC)c(OCCOC)cc23)c1 [erlotinib] (first compound 2 µM, partner dose 4 µM) |  | 72.9% | 66.7% | 116%
NC(=O)c1ccc(N(C(N)=O)c2c(F)cccc2F)nc1-c1ccc(F)cc1F + CO[C@H]1C[C@@H]2CC[C@@H](C)[C@@](O)(O2)C(=O)C(=O)N2CCCC[C@H]2C(=O)O[C@H]([C@H](C)C[C@@H]2CC[C@@H](OCCO)[C@H](OC)C2)CC(=O)[C@H](C)/C=C(\C)[C@@H](O)[C@@H](OC)C(=O)[C@H](C)C[C@H](C)/C=C/C=C/C=C/1C [everolimus] (first compound 2 µM, partner dose 0.1 µM) |  | 91.2% | 64.5% | 84.6%
NC(=O)c1ccc(N(C(N)=O)c2c(F)cccc2F)nc1-c1ccc(F)cc1F + COc1ccc(C2=N[C@@H](c3ccc(Cl)cc3)[C@@H](c3ccc(Cl)cc3)N2C(=O)N2CCNC(=O)C2)c(OC(C)C)c1 [Nutlin-3] (first compound 2 µM, partner dose 0.5 µM) |  | 73.6% | 90.8% | 104%
NC(=O)c1ccc(N(C(N)=O)c2c(F)cccc2F)nc1-c1ccc(F)cc1F + CC(C)(C)c1cnc(CSc2cnc(NC(=O)C3CCNCC3)s2)o1 [SNS-032] (first compound 2 µM, partner dose 0.05 µM) |  | 77.2% | 97.5% | 83.5%
CCCCCCCCc1ccc(CCC(N)(CO)CO)cc1 [fingolimod] + Cn1cncc1[C@@](N)(c1ccc(Cl)cc1)c1ccc2c(c1)c(-c1cccc(Cl)c1)cc(=O)n2C [tipifarnib] (first compound 10 µM, partner dose 0.05 µM) |  | 5.88% | 3.23% | 39.9%
NC(=O)c1ccc(N(C(N)=O)c2c(F)cccc2F)nc1-c1ccc(F)cc1F + O=C(Nc1cccc(Cl)c1)Nc1ncc(CCNc2ncnc3ccsc23)s1 [SNS314] (first compound 2 µM, partner dose 0.004 µM) |  | 91.5% | 77.7% | 104%
CCCCCCCCc1ccc(CCC(N)(CO)CO)cc1 [fingolimod] + CN1CCN(c2ccc3nc(-c4c(N)c5c(F)cccc5[nH]c4=O)[nH]c3c2)CC1 [Dovitinib] (first compound 10 µM, partner dose 0.5 µM) |  | 4.3% | 3.27% | 21.4%
NC(=O)c1ccc(N(C(N)=O)c2c(F)cccc2F)nc1-c1ccc(F)cc1F + Nc1ncn([C@H]2C[C@H](O)[C@@H](CO)O2)c(=O)n1 [decitabine] (first compound 2 µM, partner dose 0.5 µM) |  | 110% | 63.4% | 97%
Cc1ccc(NC(=O)c2cccc(N(C)C)c2)cc1NC(=O)c1ccc(O)cc1 + CO[C@@H]1[C@H](N(C)C(=O)c2ccccc2)C[C@H]2O[C@]1(C)n1c3ccccc3c3c4c(c5c6ccccc6n2c5c31)C(=O)NC4 [Midostaurin] (first compound 10 µM, partner dose 0.4 µM) |  | 73.3% | 53.8% | 66%
CC(C)(C)c1cnc(CSc2cnc(NC(=O)C3CCNCC3)s2)o1 + COc1cc2c(Oc3ccc4[nH]c(C)cc4c3F)ncnc2cc1OCCCN1CCCC1 [cediranib] (first compound 0.05 µM, partner dose 2 µM) |  | 68.6% | 59.9% | 73.4%
CC(C)(C)c1cnc(CSc2cnc(NC(=O)C3CCNCC3)s2)o1 + OCCn1cc(-c2cnc3nnn(Cc4ccc5ncccc5c4)c3n2)cn1 [PF04217903] (first compound 0.05 µM, partner dose 5 µM) |  | 77% | 79% | 93.8%
NC(=O)c1ccc(N(C(N)=O)c2c(F)cccc2F)nc1-c1ccc(F)cc1F + Cc1cc(Nc2cc(N3CCN(C)CC3)nc(/C=C/c3ccccc3)n2)n[nH]1 [ENMD2076] (first compound 2 µM, partner dose 0.2 µM) |  | 86.9% | 127% | 86.6%

SMILES | cell count [1] | cell count [2] | cell count [3] | cell count [4]
CCCCCCCCc1ccc(CCC(N)(CO)CO)cc1 [fingolimod] + CN(NC(=O)CC(=O)NN(C)C(=S)c1ccccc1)C(=S)c1ccccc1 [STA4783] (first compound 10 µM, partner dose 0.03 µM) |  | 3.04% | 4.61% | 15.3%
CCCCCCCCc1ccc(CCC(N)(CO)CO)cc1 [fingolimod] + Clc1ccc(Nc2nnc(Cc3ccncc3)c3ccccc23)cc1 [vatalanib] (first compound 10 µM, partner dose 10 µM) |  | 3.3% | 5.09% | 32%
NC(=O)c1ccc(N(C(N)=O)c2c(F)cccc2F)nc1-c1ccc(F)cc1F + C[C@@H](Oc1cc(-c2cnn(C3CCNCC3)c2)cnc1N)c1c(Cl)ccc(F)c1Cl [Crizotinib] (first compound 2 µM, partner dose 1 µM) |  | 89.8% | 95.2% | 111%
CCc1ccc(CCOc2ccc(CC3SC(=O)NC3=O)cc2)nc1 (centres undefined) [pioglitazone] + O=C(O)C(=O)Nc1sc2c(c1C(=O)O)CCNC2 [TCS401] (first compound 10 µM, partner dose 8.33333 µM) |  | 122% | 104% | 186%
CCCCCCCCc1ccc(CCC(N)(CO)CO)cc1 [fingolimod] + O=C(CCCCCCC(=O)Nc1ccccc1)NO [vorinostat] (first compound 10 µM, partner dose 0.4 µM) |  | 5.02% | 4.08% | 36.1%
NC(=O)c1ccc(N(C(N)=O)c2c(F)cccc2F)nc1-c1ccc(F)cc1F + CCCCCCCCc1ccc(CCC(N)(CO)CO)cc1 [fingolimod] (first compound 2 µM, partner dose 10 µM) |  | 8.49% | 5.03% | 35.8%
Cc1ccc(NC(=O)c2cccc(N(C)C)c2)cc1NC(=O)c1ccc(O)cc1 + Cn1cncc1[C@@](N)(c1ccc(Cl)cc1)c1ccc2c(c1)c(-c1cccc(Cl)c1)cc(=O)n2C [tipifarnib] (first compound 10 µM, partner dose 0.05 µM) |  | 79.7% | 92.4% | 101%
NC(=O)c1ccc(N(C(N)=O)c2c(F)cccc2F)nc1-c1ccc(F)cc1F + CN(c1ncccc1CNc1nc(Nc2ccc3c(c2)CC(=O)N3)ncc1C(F)(F)F)S(C)(=O)=O [PF562271] (first compound 2 µM, partner dose 0.4 µM) |  | 75.1% | 70.5% | 95.5%
CCCCCCCCc1ccc(CCC(N)(CO)CO)cc1 [fingolimod] + COCC[n+]1c2c(n(Cc3cnccn3)c1C)C(=O)c1ccccc1C2=O [YM155] (first compound 10 µM, partner dose 0.002 µM) |  | 3.41% | 5.53% | 80.4%
NC(=O)c1ccc(N(C(N)=O)c2c(F)cccc2F)nc1-c1ccc(F)cc1F + Nc1ccn([C@@H]2O[C@H](CO)[C@@H](O)C2(F)F)c(=O)n1 [gemcitabine] (first compound 2 µM, partner dose 0.002 µM) |  | 68.1% | 58.7% | 108%
NC(=O)c1ccc(N(C(N)=O)c2c(F)cccc2F)nc1-c1ccc(F)cc1F + Cn1nnc2c(C(N)=O)ncn2c1=O [temozolomide] (first compound 2 µM, partner dose 10 µM) |  | 84.7% | 37.7% | 107%
CCCCCCCCc1ccc(CCC(N)(CO)CO)cc1 [fingolimod] + O=c1cc(-c2cccc3c2Sc2ccccc2S3)oc(N2CCOCC2)c1 [KU55933] (first compound 10 µM, partner dose 5 µM) |  | 3.12% | 2.83% | 69.3%
NC(=O)c1ccc(N(C(N)=O)c2c(F)cccc2F)nc1-c1ccc(F)cc1F + CC(C)CCN1c2nc(Nc3cc(F)c(O)c(F)c3)ncc2N(C)C(=O)C1C [BID1870] (first compound 2 µM, partner dose 1 µM) |  | 69.4% | 84.9% | 94.2%
CCCCCCCCc1ccc(CCC(N)(CO)CO)cc1 [fingolimod] + O=C(O)c1ccc(-c2c[nH]c3ncc(-c4ccccc4)cc23)cc1C1CCCC1 [GSK650394] (first compound 10 µM, partner dose 0.8 µM) |  | 3.59% | 3.9% | 34.5%
CCCCCCCCc1ccc(CCC(N)(CO)CO)cc1 [fingolimod] + COc1ccc(COc2ccc(Cc3cnc(N)nc3N)cc2OC)cc1 [GW2580] (first compound 10 µM, partner dose 5 µM) |  | 6.22% | 7.91% | 60.6%
